Measured values published in the supplement of paper PMC12067093, “Discovery and optimisation of a covalent ligand for TRIM25 and its application to targeted protein ubiquitination” (Chemical Science, 2025).
About 21,000 targets were measured; listed, in parts, are those with the largest changes and a random draw of the rest.

Compound: CC1Cc2ccccc2N1C(=O)C1CCCN(C1)C(=O)CCl (mixture of isomers) [TRIM25 ligand 11 (diastereomer mixture)]
Assay: probe-labelled cysteine peptide fold change vs DMSO (competition) (log2 fold change); higher = less target engagement (more negative = stronger competition)
Settings: THP-1, incubation time: 4 h
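Further: competitive chemoproteomic profiling in live THP-1 cells with an iodoacetamide desthiobiotin (IA-DTB) probe, comparing probe-labelled peptide intensities in compound-treated cells against DMSO-treated controls.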

Target	probe-labelled cysteine peptide fold change (10 µM)	probe-labelled cysteine peptide fold change (50 µM)
DCAF5_Q96JK2_368_QPGCTGDLDGR (UniProt Q96JK2)	0.162	0.101
DHX9_Q08211_1029_SSVNCPFSSQDMK (UniProt Q08211)	-0.114	-0.137
DHX57_Q6P158_221_MCDGDVGASLEHLLTQCFSETFGER (UniProt Q6P158)	0.0477	-0.23
DCAF12_Q5T6F0_380_LSACYGSK (UniProt Q5T6F0)	0.0274	0.0315
CRIP1_P50238_28_DWHRPCLK (UniProt P50238)	-0.284	-0.267
CRTAP_O75718_273_DFYLSIADHYVEVLECK (UniProt O75718)	0.358	-0.0254
DCAF12_Q5T6F0_177_LPTLDPVCVGDDGHK (UniProt Q5T6F0)	0.0668	-0.175
DUS2_Q9NX74_373_MCLLEWCR (UniProt Q9NX74)	0.00852	-0.0687
CSK_P41240_422_NCWHLDAAMR (UniProt P41240)	0.0715	0.0985
DDX19A_Q9NUU7_392_VLVTTNVCAR (UniProt Q9NUU7)	0.0847	-0.0191
CUL4A_Q13619_379_DKVDHVIEVCFQK (UniProt Q13619)	-0.0311	-0.00416
DDX59_Q5T1V6_453_LFKPPVLVFVDCK (UniProt Q5T1V6)	-0.0453	-0.216
CUL3_Q13618_462+464_LKTECGCQFTSK (UniProt Q13618)	-0.109	-0.185
CTSC_P53634_331_YAQDFGLVEEACFPYTGTDSPCK (UniProt P53634)	0.118	0.102
CORO1A_P31146_332_GLEVNKCEIAR (UniProt P31146)	-0.741	-0.332
DNMT1_P26358_1476+1478_GVCSCVEAGK (UniProt P26358)	-0.213	-0.537

Target	probe-labelled cysteine peptide fold change (10 µM)	probe-labelled cysteine peptide fold change (50 µM)
CORO1A_P31146_40_VSQTTWDSGFCAVNPK (UniProt P31146)	0.0684	0.0565
CSTF3_Q12996_422_HHVYVTAALMEYYCSK (UniProt Q12996)	0.055	0.278
CPSF1_Q10570_532_SIRPQVVTTFELPGCYDMWTVIAPVR (UniProt Q10570)	-0.12	-0.29
DOCK10_Q96BY6_2164_GVDQTCTR (UniProt Q96BY6)	-0.14	-0.162
DAXX_Q9UER7_720_LSQTPHSQPPRPGTCK (UniProt Q9UER7)	-0.0465	-0.584
DNAJB1_P25685_179_VSLEEIYSGCTKK (UniProt P25685)	-0.583	-0.362
DOK2_O60496_110_GDWVQAICLLAFPGQR (UniProt O60496)	-0.089	-0.0305
CORO1A_P31146_24_HVFGQPAKADQCYEDVR (UniProt P31146)	-0.603	-0.423
CUL9_Q8IWT3_2300_CTFHHQAR (UniProt Q8IWT3)	-0.089	-0.0958
DGKZ_Q13574_1050_YLLDHAPPEILDAVEENGETCLHQAAALGQR (UniProt Q13574)	-0.0159	0.0164
DTX3L_Q8TDB6_309_QECVSLADSK (UniProt Q8TDB6)	0.138	0.054
CPSF2_Q9P2I0_187_EIHLNGCSLEMLSRPSLLITDSFNATYVQPR (UniProt Q9P2I0)	-0.0875	-0.633
DGLUCY_Q7Z3D6_265_APPGCLTPER (UniProt Q7Z3D6)	-0.0418	-0.0951
DOCK5_Q9H7D0_1428_QYMQCFTVK (UniProt Q9H7D0)	0.116	0.15
CTPS1_P17812_491_CLEEQGLK (UniProt P17812)	-0.0213	-0.0287
